Molecules are shown by their SMILES. The list shows a part of the results. The main result of the screen is listed elsewhere. These columns were measured beside it and carry no call. Most of these compounds were active or inconclusive in the main read-out, so they are no random draw.

The test deals with Chromobox protein homolog 7 (Homo sapiens) (UniProt O95931). In words: blockers of CBX7 binding to H3K27me3 peptide – biochemical, AlphaScreen, primary screen (AID 1224903). The settings on record: AlphaScreen His6-CBX7 / biotin-H3K27me3 peptide binding; measured here: z-score of CBX7 signal; stronger effect = lower value. A general note: Bead proximity is the source of the signal in Alpha formats.
Sequence of UniProt O95931 (O95931 whole entry, looked up): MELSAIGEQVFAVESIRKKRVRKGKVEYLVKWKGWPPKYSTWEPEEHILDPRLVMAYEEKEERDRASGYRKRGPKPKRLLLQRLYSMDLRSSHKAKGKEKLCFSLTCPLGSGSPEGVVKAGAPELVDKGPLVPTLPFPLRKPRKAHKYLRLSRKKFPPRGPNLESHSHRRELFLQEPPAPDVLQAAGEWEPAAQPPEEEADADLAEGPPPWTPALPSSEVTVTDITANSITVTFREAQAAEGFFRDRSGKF
In the case of `COc1ccc(-c2csc(Nc3ccc4c(c3)OCO4)n2)cc1F`, the z-score was -8.18.
To `COc1ccc(CN2CC(C(=O)NCc3ccccn3)CC2=O)cc1` (stereo not drawn) belongs -11.9.
Then `c1ccc(Nc2c(-c3ccccn3)nc3ccccn23)cc1`, with -30.7.
To `Cc1ccc(OCCCCc2c(C)n[nH]c2C)c(C(C)(C)C)c1` belongs -20.8; to `O=C1C2=C(Nc3ccccc3SC2c2ccco2)c2ccccc21` (stereo not drawn), -9.46.
In turn, `Cc1ccc2nc(-c3ccccn3)c(NC3CCCC3)n2c1` yielded a z-score of -19.
To `O=C(O)c1cccc(Nc2nc(-c3ccccn3)cs2)c1` belongs -16.9; to `CCN(CC)c1ccc(Nc2nc(-c3c(C)nc4ncccn34)cs2)cc1`, -18.7; to `CCCCOc1ccc(-c2nc3c(C(=O)OC)c[nH]n3c2NC2CCCCCC2)cc1`, -15.5.
To `CCOc1ccc2nc(N3CCCC(C(=O)N4CCN(CC)CC4)C3)sc2c1` (stereo not drawn) belongs -10.6; to `Cc1ccc(OCCn2c(C3CC(=O)N(c4cc(C)ccc4C)C3)nc3ccccc32)cc1` (stereo not drawn), -3.16; to `O=C(CCc1ccccc1)NC(c1cccs1)c1cc(Cl)c2cccnc2c1O` (stereo not drawn), -1.93.
To `CCOc1ccc2nc(N3CCCC(C(=O)NCCCN4CCN(C)CC4)C3)sc2c1` (stereo not drawn) belongs -10.6; to `COc1ccc(N2CCN(Cc3nc(-c4ccc(C)cc4)no3)CC2)cc1`, -6.54.
`CCCn1cnc2cc(NCc3ccc(C)cc3)ccc21` returned a z-score of -15.4.
To `O=C(CCCN1C(=O)c2cccnc2C1=O)N1CCN(c2ccccc2F)CC1` belongs -6.29; to `Cc1ccc(C(c2ccccc2)N2CCN(CCCc3c[nH]c4ccccc34)CC2)cc1` (stereo not drawn), -11.1.
To `Cc1ccccc1Nc1c(-c2ccccn2)nc2cccc(C)n12` belongs -16.4; to `O=C(Nc1nnc(C2CC2)o1)c1ccc(S(=O)(=O)N2CCCCC2)cc1`, -2.76; to `Oc1ccc(-c2nc(-c3ccccc3)c(-c3ccc(Oc4ccccc4)cc3)[nH]2)cc1O`, -2.19.
To `CN(Cc1ccccc1)S(=O)(=O)c1ccc(C(=O)Nc2nnc(-c3ccc(F)cc3)o2)cc1` belongs -14.4; to `CCOC(=O)c1cnc2ccc(OCC)cc2c1N1CCN(Cc2ccccc2)CC1`, -0.565.
For `Nc1nonc1-n1nnc(C(=O)O)c1CSc1nc2ccccc2o1`, the z-score is -26.2.
Then `O=C1CC(NCCN2CCOCC2)C(=O)N1c1ccc(Br)cc1` (stereo not drawn), with -8.2.
Then `Cc1ccc(Nc2c(-c3c[nH]c4ccccc34)nc3ccc(Br)cn23)cc1`, with -19.2.
Consider `Oc1cccc(-c2nc(-c3ccccc3)c(-c3ccc(F)cc3)[nH]2)c1`, for which the z-score was -16.3.
Then `O=C1C2=C(Nc3ccccc3SC2c2cccs2)c2ccccc21` (stereo not drawn), with -9.38.
To `CN(Cc1ccccc1)c1oc(COc2ccc(F)cc2)nc1C#N` belongs -3.53.
To `COC(=O)c1c[nH]n2c(NC3CCC(C)CC3)c(-c3ccc(C)cc3)nc12` (stereo not drawn) belongs -0.865; to `Cc1cccc(NC(=O)CSc2nccn2-c2cccc(Cl)c2)c1C`, -1.88; to `O=S(=O)(Nc1nccs1)c1ccc(Nc2nnc(-c3ccc(Cl)cc3)c3ccccc23)cc1`, -1.05.
In turn, `CCCCN(CC)S(=O)(=O)c1ccc(C(=O)Nc2nnc(CC)o2)cc1` gave a z-score of -10.2.
To `CC(C)n1cnc2cc(NCc3ccc(Br)cc3)ccc21` belongs -17.9; to `Cc1cccc(OCC(O)Cn2cnc3cc(C)c(C)cc32)c1` (stereo not drawn), -18.
Take `c1ccc(-c2csc(Nc3ccc4c(c3)OCO4)n2)cc1`: the z-score is -6.96.
Then `O=C1c2ccccc2C(Nc2cccnc2)N1c1cccnc1` (stereo not drawn), with -15.6; and `O=C(Nc1nnc(-c2ccccc2)o1)c1ccc(Br)cc1`, with -18.2; and `CCOc1ccc(NC(=O)c2c(NCc3cccs3)sc3c2CCCCC3)cc1`, with -7.81.
Then `OC(COc1ccccc1Cl)Cn1cnc2ccccc21` (stereo not drawn), with -7.98.
To `CCOC(=O)c1cnc2ccc(OCC)cc2c1Nc1ccc(F)c(Cl)c1` belongs -0.678; to `COc1ccc(-n2cnc3cc(NCc4nc5ccccc5n4C)ccc32)cc1`, -3.73; to `c1ccc(-c2nc3ccccn3c2Nc2ccc3c(c2)OCCO3)nc1`, -8.91.
In the case of `COc1ccc(CNc2ccc3c(c2)nc(C)n3Cc2ccccc2)cc1OC`, the z-score is -3.74.
Then `CCC(=C(c1ccc(OC)cc1)c1ccc(OC)cc1)c1cn(CC(O)CN2CCN(C)CC2)c2ccccc12` (stereo not drawn), with -4.41; and `COC(=O)c1c[nH]n2c(NC3CCC(C)CC3)c(-c3cccc(C)c3)nc12` (stereo not drawn), with -0.857.
Then `Cc1ccn2c(Nc3ccccc3)c(-c3ccccn3)nc2c1`, with -20.3.
In turn, `O=C1Nc2ccccc2Oc2cc([N+](=O)[O-])cc(Oc3cccc(Cl)c3Cl)c21` gave a z-score of -5.72.
In the case of `Cc1nnc(NC(=O)c2ccc(S(=O)(=O)N3CCCCCC3)cc2)o1`, the z-score is -1.32.
To `COc1ccc(-c2cc(-c3c(O)c(OC)c4occc4c3OC)[nH]n2)cc1OC` belongs -5.93; to `Cc1cccc(C)c1Nc1c(-c2ccccn2)nc2ccc(Br)cn12`, -0.978.
To `Cc1ccccc1Nc1nc(-c2c(C)nc3sccn23)cs1` belongs -0.669; to `O=C(CN1C(=O)CSc2ccccc21)NCCN1CCOCC1`, -9.01; to `COc1cccc(-n2c(-c3ccc(C)cc3)cc3c2CC(C)(C)CC3=O)c1`, -6.49.
The molecule `COc1ccc(CN2C(=O)c3cccnc3C2Nc2ccc(Br)c(C)c2)cc1` (stereo not drawn) gave a z-score of -10.9.
Consider `Cc1ccc2[nH]c(C)c(CCNS(=O)(=O)c3ccc(F)cc3)c2c1`, for which the z-score was -0.545.
To `O=C(Nc1nnc(C2CC2)o1)c1ccc(S(=O)(=O)N2CCOCC2)cc1` belongs -5.36.
`CCc1nnc(NC(=O)c2ccc(S(=O)(=O)N(CCC#N)CCC#N)cc2)o1` displayed a z-score of -10.4.
To `COc1ccc(-c2n[nH]c(C)c2-c2ccc3c(c2)OCCCO3)c(O)c1` belongs -0.961; to `Brc1ccc(-c2csc(Nc3ccc4c(c3)OCO4)n2)cc1`, -7.17.
Then `COc1ccccc1CNc1ccc2c(c1)ncn2-c1ccc(C)cc1`, with -3.66.
Regarding `Cc1ccn2c(Nc3ccc4c(c3)OCO4)c(-c3ccccn3)nc2c1`, the z-score is -25.7.
Then `CC(C)(C)c1ccc2c(c1)N(CC(=O)NCc1cccs1)C(=O)CO2`, with -14.
Molecule `CS(=O)(=O)Nc1ccc(Cl)c2cccnc12` registered a z-score of -21.2.
Then `CCCn1cc(C2CC(=O)N(c3ccccc3C)C2=O)c2ccccc21` (stereo not drawn), with -15.8; and `CCCc1cc(-c2[nH]ncc2-c2ccc3c(c2)OCCO3)c(O)cc1OC`, with -15.1.
As to `CCN(CC)S(=O)(=O)c1ccc(C(=O)Nc2nnc(COC)o2)cc1`, the z-score was -1.29.
On to `CC(C)(c1ccccc1)c1ccc(OCCN2CCOCC2)cc1`, for which the z-score is -10.2.
As to `Cc1cc2ncn(CC(O)COC3CCCCC3)c2cc1C` (stereo not drawn), the z-score is -18.
Then `O=C(CSc1nccn1-c1ccc(Cl)cc1)Nc1cccc(C(F)(F)F)c1`, with -1.94; and `CN(C)S(=O)(=O)c1ccc(C(=O)Nc2nnc(-c3ccc(F)cc3)o2)cc1`, with -4.21.
To `O=C1CN(C(=O)COc2ccccc2)C(c2ccccc2)c2cc(Br)ccc2N1` (stereo not drawn) belongs -4.99.
To `COc1cccc(Nc2nc(-c3ccc(F)cc3)cs2)c1` belongs -3.82.
`COc1cccc(-c2nc(-c3ccccc3)c(-c3cc([N+](=O)[O-])ccc3C)[nH]2)c1OC`: the z-score is -0.628.
To `CN(C)c1ccc(Nc2nc(-c3ccccc3)cs2)cc1` belongs -8.32.
Then `CCCc1cc(-c2[nH]ncc2-c2ccc3c(c2)OCCCO3)c(O)cc1OC`, with -0.927.
Then `CCCCOc1ccc(-c2nc3c(C(=O)OC)c[nH]n3c2NC2CCCCC2)cc1`, with -16.1; and `O=C(Nc1nc(-c2ccccn2)cs1)c1cccc(Oc2ccccc2)c1`, with -17.5.
For `Brc1ccc(CNc2ccc3c(c2)ncn3-c2ccccc2)cc1`, the z-score was -4.77.
On to `COc1ccc(C(=O)N2CC(=O)Nc3ccc(C)cc3C2c2ccc(F)cc2)c(OC)c1` (stereo not drawn), for which the z-score is -6.66.
In turn, `CC(C)(C)c1ccc(-c2nnc3sc(-c4ccccn4)nn23)cc1` displayed a z-score of -26.4.
Then `Cc1ccc(CNc2ccc3c(c2)ncn3C(C)(C)C)cc1`, with -17.
Molecule `Cc1cccc(NC(=O)C(=O)NCCCn2ccnc2)c1` came in with a z-score of -14.5.
Then `CCN(CCCNC(=O)c1nn(-c2ccccc2OC)c(=O)c2ccccc12)c1cccc(C)c1`, with -7.14; and `O=C(CC(C(=O)N1CCc2ccccc21)n1ccnc1)NCCN1CCCCCC1` (stereo not drawn), with -16.6.
Then `COc1ccccc1C(=O)NCCc1c(C)[nH]c2ccc(OCc3ccccc3)cc12`, with -8.18; and `CCn1c(C(=O)N2CCC(C(=O)N3CCN(c4cccc(C)c4)C(C)C3)CC2)cc2sccc21` (stereo not drawn), with -2.44; and `Cc1nc(Nc2ccccc2F)c2c(C)c(C)sc2n1`, with -0.694.
To `Cc1cc2ncn(CC(O)COc3ccccc3C)c2cc1C` (stereo not drawn) belongs -15.6.
`COc1cc(OC)c(NC2c3ccccc3C(=O)N2c2ccc(C)cn2)cc1Cl` (stereo not drawn) displayed a z-score of -7.85.
Then `COc1ccc(C(NC(=O)CC(C)C)c2ccc3cccnc3c2O)cc1OC` (stereo not drawn), with -3.3; and `COc1ccc(-n2cnc3cc(NCc4ccccc4OC)ccc32)cc1`, with -3.21; and `COc1ccc(Cl)cc1NC(=O)c1c(NCc2sccc2C)sc2c1CCCC2`, with -8.57.
`COCc1nnc(NC(=O)c2ccc(S(=O)(=O)N(CCC#N)CCC#N)cc2)o1`: the z-score is -1.63.
To `O=C(O)c1ccc(Nc2nc(-c3ccccn3)cs2)cc1` belongs -16.2.
Then `CCOc1ccc(NCC(O)Cn2c(C)c(C)c3ccccc32)cc1` (stereo not drawn), with -6.09.
To `COc1ccc(Nc2nc(-c3sc(N)nc3C)cs2)cc1` belongs -13.6.
On to `Cc1c(NC(=O)c2ncn[nH]2)cccc1-c1nc2cc(Cl)ccc2o1`, for which the z-score is -24.9.
Then `CCN(CCCNC(=O)Cc1cn(C)c2ccccc12)c1cccc(C)c1`, with -14.6; and `COc1ccc(-n2cnc3cc(NCc4cccc(OC)c4OC)ccc32)cc1`, with -5.03.
In turn, `COc1ccc(CNc2ccc3c(c2)nc(C)n3Cc2ccccc2)cc1` displayed a z-score of -11.8.
To `COc1ccc(OC)c(Nc2nc(-c3ccccn3)cs2)c1` belongs -7.94.
Then `CCCCN(CCCC)S(=O)(=O)c1ccc(C(=O)Nc2nnc(C)o2)cc1`, with -1.32.
As to `Cc1ccc(Nc2c(-c3ccccn3)nc3ccc(C)cn23)cc1`, the z-score was -19.8.
To `CCOC(=O)c1cnc2ccc(OC)cc2c1Nc1ccc2c(c1)OCCO2` belongs -2.33; to `Cc1ccc(-c2csc(Nc3ccc(Cl)cc3)n2)cc1C`, -11.9.
Then `Cc1nc(Nc2cccc(C(F)(F)F)c2)c2c(C)c(C)sc2n1`, with -0.722; and `CCc1nnc(NC(=O)c2ccc(S(=O)(=O)N(CC)CC)cc2)o1`, with -1.56; and `CCOc1ccc(Nc2nc(-c3sc(NC(=O)c4ccccc4)nc3C)cs2)cc1`, with -14.3.
